# Laboratory results: the supplement of paper PMC3334620
# Over roughly 33,000 sequences, “E-score (-0.5 to 0.5)” has its median near -0.054; the highest 2% begin near 0.39. This is one part of the list.
# Molecular target: Ylr278c (UniProt Q05854)
# Test: PBM E-score (8-mer binding enrichment) (E-score (-0.5 to 0.5)); higher = stronger / more preferred TF binding; most listed sequences are background and not binding sites
# Conditions: protein concentration: 200 nM; construct: GST-DNA-binding domain
# In short: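 E-scores (a modified Wilcoxon-Mann-Whitney statistic) were assigned by the Universal PBM Analysis Suite to every ungapped eight-base word pooled with its reverse complement. The input came from universal all-10-mer Agilent arrays made double-stranded by primer extension and probed with GST-tagged yeast transcription factors at about 100-200 nM. Fluorescent anti-GST detected bound protein, and masliner normalised the scans.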
row,Sequence,PBM E-score
1,CTTTGTAC,-0.298
2,AACACGTG,0.0455
3,ACTGCCAG,-0.133
4,GGTCTTAA,-0.193
5,CTAGGCCA,-0.0375
6,TCTTGAAA,0.00708
7,TGACTTAA,-0.207
8,ACACAAGC,-0.114
9,ACACTACT,-0.0995
10,CGAATCCC,0.262
11,AAATTCAA,0.0115
12,CATCCTAA,-0.093
13,GGCCAAAA,-0.0641
14,AGATGCGG,0.211
15,CATAACAC,-0.168
16,CACCATAG,-0.261
17,CCAACCTA,-0.0214
18,CATGCAAA,-0.0172
19,CATCTCAG,-0.161
20,ACGACACC,0.0263
21,CAGCTGCG,0.0853
22,ACCGTAGA,0.022
23,AACCACCG,0.214
24,ACGCGGAA,0.366
25,CTATCGAA,-0.109

row,Sequence,PBM E-score
1,GTACTTCA,0.106
2,AGCACTCA,-0.0941
3,GACATTTA,-0.0358
4,CATCATCA,-0.105
5,AAGGGCGG,0.238
6,CGTACACG,-0.0955
7,CGTTGGAC,-0.198
8,AAAGAAGA,-0.0104
9,ACGGTGGC,-0.081
10,CCGGTATC,0.32
11,AACGCAGG,-0.131
12,ACCCGGTG,0.277
13,CAAATGGC,0.0232
14,ACGATGAA,-0.0538
15,CGACGAAA,-0.00274
16,CGGTCTGC,0.117
17,AATTCCAT,0.0569
18,ATTGTCCC,0.0603
19,GATAACCC,0.0616
20,GACTTGGA,0.0724
21,AACTTTAG,-0.125
22,AATACACG,0.0135
23,AGCCCTCC,-0.00851
24,CGAGGCGA,-0.12
25,AGGCGGAC,0.386

row,Sequence,PBM E-score
1,CGACATGC,0.0489
2,AGTTACGA,0.0146
3,GCTGAAGC,-0.155
4,CTCTCTTC,-0.152
5,AAGCTCAA,-0.279
6,GATATTAA,0.214
7,AGCGAGCG,0.0111
8,GATCTTAC,-0.0789
9,GACACGTC,-0.0904
10,CTTCAAGA,-0.173
11,AGGCTTCG,0.185
12,ACGCTCCG,0.399
13,GATCTTAA,-0.151
14,GCACGCGC,0.0902
15,ACGAGATC,-0.105
16,ACTGGGCT,-0.0216
17,AGTAATTG,-0.0243
18,GTTAAGGA,-0.147
19,CTTGCCTA,-0.349
20,AGACTGAC,-0.202
21,ATGTATAG,-0.156
22,CACCGGCA,0.328
23,CTGCGTCA,-0.257
24,AGTTCGTC,-0.1
25,ATTGCCTA,-0.239

row,Sequence,PBM E-score
1,CGCGTCCC,0.0634
2,AGTGCCTA,-0.359
3,ACTGCGAG,-0.0763
4,AATTTGGG,-0.134
5,ATCCCAAT,-0.189
6,AGAGCGCA,-0.126
7,AACTCGAC,-0.0215
8,AAGAGGGT,-0.301
9,AGTCAATC,-0.124
10,CTAGCATC,-0.167
11,ACAACTGT,-0.207
12,CGGGACGC,0.117
13,AAGAGCTC,0.0111
14,ACCCGATC,0.119
15,AAGTGCAG,-0.233
16,CACCTAGG,-0.172
17,CTCTCTAA,-0.358
18,ATCTCCTA,-0.149
19,CTGAGCCC,-0.111
20,ACTACACC,0.00692
21,AGGTCTCC,-0.0687
22,CAATAGAA,-0.18
23,ACGTGCAC,-0.185
24,GCCTGAGC,-0.244
25,ACTACGGG,0.183

row,Sequence,PBM E-score
1,GTGGCAAA,-0.0257
2,ATGGGGGG,-0.191
3,GAGCATTA,-0.111
4,AGGAACGC,-0.0244
5,CTTTCGGA,0.451
6,CCTCAGGC,-0.109
7,CGATAAAA,0.217
8,ACCCTTAC,-0.0675
9,AACCTTGC,-0.14
10,CTTTCAAC,-0.0592
11,GTCGTCCA,-0.0332
12,ACATATGA,-0.152
13,AGGGTTAG,-0.249
14,CGGACTCC,0.423
15,AAGACCGG,0.334
16,CACGTCTG,-0.205
17,CAGCTAGG,-0.173
18,ACGTCACA,-0.158
19,CGATATAG,-0.0776
20,CGGTGAAC,0.144
21,GGGCGACC,-0.00494
22,GCGGAACA,0.344
23,AAATACAC,-0.0158
24,CAACTGCA,-0.174
25,CTTTGTTA,-0.0347

row,Sequence,PBM E-score
1,CACGCTCG,-0.0329
2,AGCGCCCC,0.0403
3,ACCCGTCA,0.0523
4,AGTGCAAA,-0.176
5,ATTATGAC,-0.109
6,CGGGACCC,0.274
7,CTTGAGGA,0.0479
8,AATGGGAC,-0.0985
9,CACGATCG,0.0663
10,GTGAGCAC,-0.211
11,CAGGTGCA,-0.179
12,CAACATAA,-0.0229
13,CAAATCGG,0.319
14,AGGGAATA,-0.0119
15,TATATATA,0.162
16,ATGCATGG,0.0517
17,AGACCTCC,0.0925
18,ACGTACGC,-0.181
19,CAAGCATC,-0.0118
20,ATCTGGTA,-0.0599
21,GTAAGTTA,-0.0999
22,CGTTATTA,0.08
23,ACAAGGAC,-0.287
24,CTCGTCTC,0.0125
25,CTCTTCAG,-0.268

row,Sequence,PBM E-score
1,CCTACGGA,0.202
2,GCCGTTTA,0.124
3,CGTTTGTA,-0.0913
4,GAAGTGGC,-0.091
5,AGGCGCTG,0.117
6,ATGTTCAC,-0.216
7,CCGACATC,0.284
8,TATCCGCA,0.271
9,GAGAATCA,-0.0154
10,ATTCCAGA,0.0166
11,CATGGGGA,-0.0651
12,GATGTCAA,-0.13
13,CATGCTCC,0.0684
14,AGTGCGGG,0.258
15,AGAACAGA,-0.0019
16,CTTTTGAC,-0.262
17,CGACCAAG,-0.188
18,TGGAAAAA,0.00585
19,AGTACTAG,-0.206
20,TAGAGCCA,-0.334
21,CATGAGTC,-0.228
22,AATGAATC,-0.211
